The chains are these.
B1: ARPC1B_Y35_K37N (peptide)
chain: HEVHIYENSGA
B2: ARFGEF1_Y314_G316E (peptide)
chain: KNEVLYDEENH
B3: ARSB_Y165_R160Q (peptide)
chain: QGFDTYFGYLL
B4: ASL_Y376_R379C (peptide)
chain: TDLAYYLVCKG
B5: ARVCF_Y901_R906Q (peptide)
chain: LGPDGYSTVDQ
B6: ASB10_Y457_R453C (peptide)
chain: PCLLRYLQLDF
B7: ASL_Y375_K380E_YF (peptide)
chain: ATDLAYFLVRE
B8: ARF1_Y35 (peptide)
chain: KTTILYKLKLG
B9: ASL_Y375_R379C (peptide)
chain: ATDLAYYLVCK
B10: ASL_Y376_K380E_YF (peptide)
chain: TDLAFYLVREG
B11: ASL_Y375 (peptide)
chain: ATDLAYYLVRK
B12: ARAP2_Y380_K384N (peptide)
chain: IKSSIYDNRNE
B13: ASNS_Y555_R550C (peptide)
chain: CTLTHYKSAVK
B14: ARFGEF1_Y314 (peptide)
chain: KNEVLYDGENH
B15: ARID1B_Y483_P488R (peptide)
chain: DMGAQYAAASR
B16: ASS1_Y113_G117D (peptide)
chain: REGAKYVSHDA
B17: ASAH1_Y43_T42A (peptide)
chain: PSGPAYRGAVP
B18: ARID1B_Y1091 (peptide)
chain: DLFRLYVCVKE

The record followed here is the supplement of paper PMC10369915.

This is one part of the list. Cut-off read from the data, not from the text of the source: active = 3.2 or more and inactive = the rest. The signal is at background level for most entries.
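Note: displayed peptides selected on beads carrying the immobilized SH2 domain, with library peptides lacking any tyrosine serving as negative controls.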

In the first assay the target is SHP2 C-SH2 domain E139D. As to the kind of experiment: enrichment score (SH2-bound / input frequency) (ratio); bacterial display of known human phosphotyrosine sites (pTyr-Var adds point mutants) read by sequencing; higher = stronger binding; tyrosines were phosphorylated by kinases first. The conditions noted are these: peptide library: pTyr-Var.
On to B1, for which the enrichment score is inactive: 3.08.

For the molecule B2, the enrichment score was inactive: 0.547.

Regarding B3, the enrichment score is inactive: 1.07.

With B4, the enrichment score is inactive: 0.619.

B5: the enrichment score is inactive: 0.45.

As for B6, the enrichment score is inactive: 3.08.

B7: the enrichment score was inactive: 1.05.

For the molecule B8, the enrichment score is inactive: 2.4.

Take B9: the enrichment score was inactive: 1.07.

On to B10, for which the enrichment score was inactive: 1.15.

B11: the enrichment score is inactive: 0.701.

Regarding B12, the enrichment score was inactive: 0.551.

Turning to B13, the enrichment score is inactive: 0.91.

For the molecule B14, the enrichment score is inactive: 0.525.

As for B15, the enrichment score is inactive: 0.455.

In the case of B16, the enrichment score is inactive: 0.463.

Turning to B17, the enrichment score is inactive: 0.57.

In the case of B18, the enrichment score is inactive: 0.642.

The target of a further assay is SHP2 C-SH2 domain wild-type. The description is as above. The settings on record: peptide library: pTyr-Var.
Take B1: the enrichment score was active: 3.65.

With B2, the enrichment score was inactive: 0.654.

Turning to B3, the enrichment score is inactive: 0.915.

For B4, the enrichment score is inactive: 1.01.

As to B5, the enrichment score was inactive: 0.676.

As to B6, the enrichment score is inactive: 2.98.

As for B7, the enrichment score is inactive: 0.952.

For B8, the enrichment score is inactive: 2.16.

For the molecule B9, the enrichment score is inactive: 1.52.

On to B10, for which the enrichment score was inactive: 1.23.

B11: the enrichment score was inactive: 0.704.

On to B12, for which the enrichment score was inactive: 0.513.

In the case of B13, the enrichment score is inactive: 1.2.

In the case of B14, the enrichment score is inactive: 0.448.

Regarding B15, the enrichment score was inactive: 0.462.

For the molecule B16, the enrichment score was inactive: 0.599.

For B17, the enrichment score was inactive: 0.509.

Turning to B18, the enrichment score was inactive: 0.978.

The target in a further assay is SHP2 N-SH2 domain L43F. The assay is described as above. The settings on record: peptide library: pTyr-Var.
B1: the enrichment score was active: 3.49.

B2: the enrichment score was inactive: 0.676.

Turning to B3, the enrichment score was inactive: 0.771.

For the molecule B4, the enrichment score is inactive: 0.818.

As for B5, the enrichment score was inactive: 0.922.

In the case of B6, the enrichment score is active: 7.49.

On to B7, for which the enrichment score was inactive: 1.15.

Regarding B8, the enrichment score is inactive: 2.14.

B9: the enrichment score was inactive: 1.15.

In the case of B10, the enrichment score is inactive: 1.

As to B11, the enrichment score was inactive: 0.848.

With B12, the enrichment score is inactive: 0.743.

Take B13: the enrichment score was inactive: 1.

Take B14: the enrichment score was inactive: 0.505.

For B15, the enrichment score is inactive: 0.476.

In the case of B16, the enrichment score is inactive: 0.538.

For the molecule B17, the enrichment score is inactive: 0.553.

On to B18, for which the enrichment score was inactive: 0.817.

The next assay addresses SHP2 N-SH2 domain T42A. Described as above. The conditions noted are these: peptide library: pTyr-Var.
As for B1, the enrichment score was active: 3.25.

As to B2, the enrichment score is inactive: 0.652.

For B3, the enrichment score is inactive: 0.876.

Consider B4, for which the enrichment score was inactive: 0.678.

Take B5: the enrichment score was inactive: 1.68.

For B6, the enrichment score is active: 8.59.

In the case of B7, the enrichment score was inactive: 0.998.

For the molecule B8, the enrichment score is inactive: 1.98.

In the case of B9, the enrichment score was inactive: 1.05.

In the case of B10, the enrichment score was inactive: 1.05.

Regarding B11, the enrichment score was inactive: 0.612.

Take B12: the enrichment score was inactive: 0.551.

For B13, the enrichment score was inactive: 0.959.

On to B14, for which the enrichment score is inactive: 0.406.

Regarding B15, the enrichment score is inactive: 0.362.

Take B16: the enrichment score was inactive: 0.37.

As to B17, the enrichment score is inactive: 0.467.

For B18, the enrichment score is inactive: 0.632.

For another assay, the target named is SHP2 N-SH2 domain T52S. Described as above. The settings on record: peptide library: pTyr-Var.
B1: the enrichment score is active: 3.51.

In the case of B2, the enrichment score was inactive: 0.632.

On to B3, for which the enrichment score was inactive: 0.715.

As to B4, the enrichment score was inactive: 0.324.

Consider B5, for which the enrichment score is inactive: 0.821.

With B6, the enrichment score was active: 8.51.

Regarding B7, the enrichment score is inactive: 0.88.

For B8, the enrichment score is inactive: 2.41.

Consider B9, for which the enrichment score is inactive: 0.96.

B10: the enrichment score was inactive: 0.963.

In the case of B11, the enrichment score was inactive: 0.841.

On to B12, for which the enrichment score was inactive: 0.713.

Consider B13, for which the enrichment score was inactive: 0.911.

Regarding B14, the enrichment score is inactive: 0.476.

For B15, the enrichment score is inactive: 0.485.

Turning to B16, the enrichment score is inactive: 0.522.

Take B17: the enrichment score is inactive: 0.686.

Take B18: the enrichment score was inactive: 0.68.

The next assay addresses SHP2 N-SH2 domain wild-type. The description is as above. The conditions noted are these: peptide library: pTyr-Var.
Take B1: the enrichment score was inactive: 2.9.

With B2, the enrichment score is inactive: 0.842.

On to B3, for which the enrichment score was inactive: 0.909.

On to B4, for which the enrichment score is inactive: 0.994.

On to B5, for which the enrichment score is inactive: 0.57.

In the case of B6, the enrichment score is active: 4.2.

As to B7, the enrichment score is inactive: 0.991.

With B8, the enrichment score is inactive: 2.13.

On to B9, for which the enrichment score was inactive: 1.83.

For the molecule B10, the enrichment score was inactive: 1.14.

As for B11, the enrichment score is inactive: 0.617.

As for B12, the enrichment score is inactive: 0.778.

For the molecule B13, the enrichment score is inactive: 1.17.

B14: the enrichment score was inactive: 0.468.

With B15, the enrichment score was inactive: 0.505.

Turning to B16, the enrichment score is inactive: 0.584.

With B17, the enrichment score was inactive: 0.636.

Turning to B18, the enrichment score was inactive: 1.19.
